Measurements: PMC4336329 (PLoS ONE, 2015)
The whole screen tested about 310,000 compounds, of which about 14,000 (4.5%) showed an effect of 50% or more. The effect is printed as a negative number. This is one part of the list.
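Note: peak tail current of the secondary pulse compared with the same well before compound.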

Each molecule was assayed against human ether-à-go-go-related gene (hERG) potassium channel (human, UniProt Q12809) (assay: primary screen, population patch clamp on CHO cells stably expressing hERG).
Chain of human ether-à-go-go-related gene (hERG) potassium channel (Q12809 whole entry, looked up): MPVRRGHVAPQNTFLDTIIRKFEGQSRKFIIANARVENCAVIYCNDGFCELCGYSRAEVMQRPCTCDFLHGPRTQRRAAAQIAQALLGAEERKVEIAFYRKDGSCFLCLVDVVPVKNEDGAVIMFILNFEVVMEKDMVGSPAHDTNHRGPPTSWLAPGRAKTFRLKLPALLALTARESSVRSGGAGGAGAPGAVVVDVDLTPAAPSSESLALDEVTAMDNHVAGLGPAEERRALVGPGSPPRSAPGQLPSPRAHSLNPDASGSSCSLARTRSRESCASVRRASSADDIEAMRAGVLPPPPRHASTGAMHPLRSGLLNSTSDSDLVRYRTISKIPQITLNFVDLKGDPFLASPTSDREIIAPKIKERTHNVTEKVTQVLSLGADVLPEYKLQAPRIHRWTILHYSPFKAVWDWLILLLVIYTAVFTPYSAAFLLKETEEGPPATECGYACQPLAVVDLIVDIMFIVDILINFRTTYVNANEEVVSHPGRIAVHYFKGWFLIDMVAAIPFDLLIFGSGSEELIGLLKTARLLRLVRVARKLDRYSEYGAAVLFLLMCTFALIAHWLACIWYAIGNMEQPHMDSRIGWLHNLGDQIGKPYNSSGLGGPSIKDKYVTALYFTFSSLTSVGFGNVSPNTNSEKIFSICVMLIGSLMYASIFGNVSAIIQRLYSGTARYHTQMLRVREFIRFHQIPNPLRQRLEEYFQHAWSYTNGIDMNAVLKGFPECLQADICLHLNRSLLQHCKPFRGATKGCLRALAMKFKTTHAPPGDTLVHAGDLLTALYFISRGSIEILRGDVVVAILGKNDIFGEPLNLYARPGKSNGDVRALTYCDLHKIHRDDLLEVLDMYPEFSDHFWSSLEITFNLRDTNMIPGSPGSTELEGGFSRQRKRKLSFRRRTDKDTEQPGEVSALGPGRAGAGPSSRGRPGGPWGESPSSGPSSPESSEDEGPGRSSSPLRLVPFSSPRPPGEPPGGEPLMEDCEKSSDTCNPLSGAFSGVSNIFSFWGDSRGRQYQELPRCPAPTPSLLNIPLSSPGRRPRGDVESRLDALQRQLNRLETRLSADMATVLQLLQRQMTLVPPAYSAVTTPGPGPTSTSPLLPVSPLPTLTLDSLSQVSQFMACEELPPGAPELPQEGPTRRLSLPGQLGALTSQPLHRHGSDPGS
With COc1ccc(C(C[N+](=O)[O-])c2c(C)[nH]c3ccccc23)cc1OC (stereo not drawn) the “hERG current change (%, negative = inhibition) at 10uM” value was 26.1%. For Cc1nn(CCCC(=O)Nc2cccnc2Cl)c(C)c1[N+](=O)[O-], the “hERG current change (%, negative = inhibition) at 10uM” value was -2.31%. In the case of COC(=O)c1ccc(C)c(NC(=O)CSc2sc3c(O)cc(=O)[nH]c3c2C#N)c1, the “hERG current change (%, negative = inhibition) at 10uM” value is reported as -10.2%. COc1ccccc1OCC(=O)Nc1nc(C)c(C)s1 was tested, and the “hERG current change (%, negative = inhibition) at 10uM” value was 8.16%. Cc1noc(/C=C/c2ccco2)c1S(=O)(=O)N1CCC(C(=O)N2CCc3ccccc3C2)CC1 was tested, and the “hERG current change (%, negative = inhibition) at 10uM” value was -15.5%. With Br.CC(C)(C)C(=O)CNCC(=O)C(C)(C)C the “hERG current change (%, negative = inhibition) at 10uM” value was 21.9%. O=C(CN1CCCCCC1)Nc1ccccc1.O=C(O)C(=O)O was tested, and the “hERG current change (%, negative = inhibition) at 10uM” value was 10.8%. CCOC(=O)N1CCN(C(=O)c2ccc(CNS(=O)(=O)c3ccc(OC)cc3)cc2)CC1 was tested, and the “hERG current change (%, negative = inhibition) at 10uM” value was -4.84%. With CCCc1nnc(SCC(=O)O)n1/N=C/c1ccc2c(c1)OCO2 the “hERG current change (%, negative = inhibition) at 10uM” value was -7.5%. In the case of COc1ccc2c(Cl)c(C(=O)NCC3CCCO3)sc2c1Cl (stereo not drawn), the “hERG current change (%, negative = inhibition) at 10uM” value is reported as 18.1%. In the case of Cc1cc(NC(=O)c2cc(-c3ccc(O)cc3)on2)no1, the “hERG current change (%, negative = inhibition) at 10uM” value is reported as 15.2%. In the case of Cc1cc(-c2cc(-c3ccccc3)on2)nc(NCC2CC2)n1, the “hERG current change (%, negative = inhibition) at 10uM” value is reported as 15.6%. For COc1cccc(-c2nc(CS(=O)(=O)CC(=O)NC3CCCCCC3)c(C)o2)c1, the “hERG current change (%, negative = inhibition) at 10uM” value was 11.4%. CC(C)(C)C(=O)Nc1ccc(C(=O)N/N=C/c2ccccc2OC(=O)c2ccccc2)cc1 was tested, and the “hERG current change (%, negative = inhibition) at 10uM” value was 9.21%. CCOCCCNC(=O)CCCC1=NS(=O)(=O)c2ccccc2N1 was tested, and the “hERG current change (%, negative = inhibition) at 10uM” value was -0.783%. In the case of Cc1ccc(S(=O)(=O)N2CCN(C(=O)CN3C(=O)c4ccccc4C3=O)CC2)c(C)c1, the “hERG current change (%, negative = inhibition) at 10uM” value is reported as 9.02%. With Cc1ccc(SCCN2CCC(NC(=O)OCc3ccccc3)CCC2=O)cc1 (stereo not drawn) the “hERG current change (%, negative = inhibition) at 10uM” value was -50.1%. For COc1ccccc1CN1CCNC(=O)C1CC(=O)NC1CCCCCC1 (stereo not drawn), the “hERG current change (%, negative = inhibition) at 10uM” value was -0.837%. For CCc1ccc(NC(=O)[C@@H](NC(=O)[C@@H]2Cc3ccccc3CN2)C(C)CC)cc1 (stereo partly drawn), the “hERG current change (%, negative = inhibition) at 10uM” value was -13.6%. With CN(C)S(=O)(=O)c1ccc(S(=O)(=O)NC2CCOC(C)(C)C2)cc1 (stereo not drawn) the “hERG current change (%, negative = inhibition) at 10uM” value was -4.07%. O=C(Nc1ccc(Cl)cc1)c1cccc(NC2=NC3CS(=O)(=O)CC3S2)c1 (stereo not drawn) was tested, and the “hERG current change (%, negative = inhibition) at 10uM” value was -15.9%. For COC(=O)CCSCC(=O)Nc1nnc(C)s1, the “hERG current change (%, negative = inhibition) at 10uM” value was 1.24%. COC(=O)Sc1nnc(-c2ccc(Br)cc2)o1 was tested, and the “hERG current change (%, negative = inhibition) at 10uM” value was 17.4%. CC1CCN(C(=O)C2(NC(=O)Nc3cccc(F)c3)CCCCC2)CC1 was tested, and the “hERG current change (%, negative = inhibition) at 10uM” value was 7.6%.
